The assay has as its system NCI-H322M lung. The assay is described as follows: NCI-60 cell line screen, 48 h.

In PubChem BioAssay (NCI) one finds GI50 and TGI data, which are given here for six compounds.

Each structure is given as a SMILES string.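 1) Cells in 96-well plates. 2) Compound, 48 h, 5 concentrations. 3) Linear interpolation between surrounding doses. 4) Unreached endpoint = highest concentration. GI50 is the concentration that inhibits growth by half. TGI: total growth inhibition.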

On to `CNC(=O)c1c(NC(=O)c2ccccc2C(F)(F)F)sc2c1CCC(=O)C2`, for which the GI50 was 3.17 µM and the TGI was greater than 100 µM.
In the same order, the values of `Cc1cccc(N2CCN(C3=C(Cl)C(=O)c4ncccc4C3=O)CC2)c1` are 14.4 µM and 28.2 µM.
For the compound `O=C(CSc1nc2ccccc2c(=O)n1-c1ccc(Cl)cc1)N/N=C/c1ccc(Oc2ccc(Cl)cc2)cc1`, the GI50 was 3.02 µM and the TGI is 15 µM.
In the same order, the values of `Cc1ccc(S(=O)(=O)c2nc(-c3ccc(F)cc3)oc2S(C)(=O)=O)cc1` are greater than 100 µM and greater than 100 µM.
For `CC(C)=CCC[C@](C)(O)[C@H]1CC[C@]2(C)[C@@H]1CC[C@@H]1[C@@]3(C)CC[C@H](N)C(C)(C)[C@@H]3CC[C@]12C` the same measures were 1.72 µM and 3.11 µM.
For `COc1cc2c(O[C@@H]3OC[C@H](OC(C)=O)[C@H](OC(C)=O)[C@H]3O)c3c(c(-c4ccc5c(c4)OCO5)c2cc1OC)C(=O)OC3` the same measures were greater than 5.79 µM and greater than 10 µM.
